Results: the BET-seq Pho4 binding data (Le et al. 2018)
The list shows a part of the results. Values were computed here from the reads of four pooled replicates and scatter widely.

Target: T1, Pho4 (S. cerevisiae) (UniProt P07270)
T1 sequence: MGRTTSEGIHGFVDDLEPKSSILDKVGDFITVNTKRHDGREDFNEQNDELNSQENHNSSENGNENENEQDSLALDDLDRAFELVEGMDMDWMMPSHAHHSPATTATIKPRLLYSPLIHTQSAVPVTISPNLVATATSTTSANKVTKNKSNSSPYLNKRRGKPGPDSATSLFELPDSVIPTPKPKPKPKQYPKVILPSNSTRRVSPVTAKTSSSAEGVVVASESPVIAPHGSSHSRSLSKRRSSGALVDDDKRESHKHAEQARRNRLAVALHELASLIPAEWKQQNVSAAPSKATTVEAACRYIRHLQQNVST
Test: relative binding free energy (BET-seq); higher = weaker binding
Conditions: reference: library average

Sequence | relative binding free energy [kcal/mol]
TTAGGCACGTGGTTGG | -0.14
GGTCTCACGTGTGGAA | 0.39
CCTTGCACGTGTGTGT | -0.06
TGCTACACGTGTAATG | 0.09
CAGATCACGTGGGTGG | 0.03
ATGTGCACGTGATTTT | -0.07
ATGCGCACGTGTATTG | -0.19
GTATTCACGTGGTTGC | 0.24
AGTGCCACGTGAATTG | 0.28
TAGCCCACGTGGGGTG | -0.3
GGTAACACGTGGTAAA | 0.02
ATATACACGTGGTGCG | -0.2
GTGTGCACGTGCGGCT | -0.07
GGGGACACGTGGTCGT | 0.02
GTTATCACGTGTTTTC | 0.12
GTTTGCACGTGTTGAC | 0.11
AGGTGCACGTGGATGT | 0.05
GATTTCACGTGCGGTT | 0.3
TTTATCACGTGTGGGG | 0.28
GGGCACACGTGGGTTT | -0.12
TTTTTCACGTGGCGAG | 0.21
CTCGGCACGTGTATGT | -0.01
AGGCTCACGTGTTAGG | 0.37

Sequence | relative binding free energy [kcal/mol]
ATGGCCACGTGTGGGC | 0.11
GTATACACGTGGTTAG | -0.2
TTGTTCACGTGTATGC | 0.34
TAGCGCACGTGGTGGA | -0.18
ATTTTCACGTGGGATA | 0.19
TGTAACACGTGATGAG | 0.12
TATCGCACGTGGGGCA | -0.11
CGGGCCACGTGGGCTG | -0.28
GGGTTCACGTGGTAAG | 0.39
GTCGGCACGTGATCGT | 0.12
AGGATCACGTGGATGT | 0.05
GTTCACACGTGGCGGG | 0.03
CGTGGCACGTGGTCAG | -0.34
CTGAGCACGTGTTGGT | -0.14
AAGTTCACGTGAGATT | 0.61
GTTCTCACGTGTTGGC | 0.15
GTTGTCACGTGGTGAG | 0.02
AAGGACACGTGATGGA | 0.15
TTTTGCACGTGTTGGT | 0.11
ATTGGCACGTGCATAG | -0.36
TGATTCACGTGGGCTG | 0.11
GGGGTCACGTGTGGCT | 0.21
AGATACACGTGGCGTG | -0.08

Sequence | relative binding free energy [kcal/mol]
TTTGACACGTGGTGGT | -0.05
GTGGGCACGTGAAAGG | 0.27
TAGTTCACGTGTCTTA | 0.24
ATTTGCACGTGGTTGG | 0.08
ATTACCACGTGTTGGG | 0.08
TGTTGCACGTGTGATA | 0.08
TTTGTCACGTGCGTGA | 0.05
GCGTGCACGTGTTCGG | 0.1
ACTGGCACGTGGCGGG | -0.13
TATGCCACGTGGTGCG | -0.21
GTGTTCACGTGGTTAA | 0.31
ACGGTCACGTGTTAGT | 0.14
TGGGGCACGTGCCGGA | -0.14
GGGATCACGTGTGTAC | 0.14
TGGTTCACGTGGAGCT | 0.23
TTGTCCACGTGGGGGT | -0.21
TCTTACACGTGTGTGA | 0.14
TTTGCCACGTGTGAGG | 0.06
CTGATCACGTGCGTGG | 0.01
CGGTGCACGTGCGGGG | -0.17
CGTGCCACGTGGTCGG | -0.22
GTATTCACGTGAATTT | 0.38
TTCTTCACGTGAGATT | 0.42

Sequence | relative binding free energy [kcal/mol]
ATTGACACGTGGCCGG | -0.03
GGATGCACGTGTCTGG | -0.02
ACGTACACGTGGTGTT | 0
CTTGACACGTGAGAGG | 0.46
TTAGGCACGTGCGCGT | -0.2
GGATTCACGTGTAATT | 0.34
GTTAACACGTGTGGCT | 0.06
AAGTGCACGTGTCTTT | 0.07
ATAAGCACGTGTGAGG | -0.07
ATTGGCACGTGGCGTG | -0.22
AGGGCCACGTGTATGT | -0.07
TAAATCACGTGGTGTC | -0.04
TAAATCACGTGTGGAA | 0.26
GTCTTCACGTGTTGTG | 0.22
AGTGGCACGTGCAAGG | -0.07
TGCGACACGTGATTTT | 0.13
GGGTTCACGTGATTAG | 0.46
CGGGGCACGTGTATGT | -0.02
GGGTACACGTGGCTGG | 0.09
AAAGACACGTGGGTTG | -0.17
AGGGACACGTGTGGTC | 0.08
AGTATCACGTGTGGCA | 0
ATACTCACGTGTTGGG | 0.14

Sequence | relative binding free energy [kcal/mol]
TAGCTCACGTGGTTAT | 0.13
TAATTCACGTGGTATT | 0.35
GTAAACACGTGGTTCT | 0.03
TGTTGCACGTGCTAGT | -0.02
TAGAACACGTGTTGAT | 0.1
TGCGCCACGTGTGTAG | -0.09
ACAATCACGTGTGGGG | 0.12
CGCGGCACGTGGGAAG | 0
GTTAACACGTGTTTAA | 0.01
TAAATCACGTGCGGGT | 0.15
CGGGGCACGTGTGTAC | -0.05
TCTGGCACGTGGGATC | -0.06
AGTGGCACGTGGATCT | -0.08
ATTAGCACGTGGAGGG | -0.14
GGGTGCACGTGCTTCG | -0.13
TGTAGCACGTGACAGG | 0.06
TGTAACACGTGTGTGG | 0.04
AAGTTCACGTGAAGTT | 0.34
TAGTACACGTGGGGGG | -0.09
TTGGACACGTGATTAA | 0.19
GGATACACGTGTGCGG | -0.01
AGTTGCACGTGTTACA | -0.04
GGAGGCACGTGCAATG | -0.11
